The other results are listed elsewhere or left out.
B1: chr5:34944098:34944099:+_ENSMUSG00000029106_ENSMUST00000114338|mus_mus|FALSE|FALSE (ssRNA)
RNA: GGGAGUUCUACAGUCCGACGAUCCUGCUCCAUCAUAUUGAAGUCCUGACGAAGGUCUGGUGCCAUGUUCCUCUCCCGCAAAUAUUCUGGGUUGUUCUCAUCGACUCUGUCAAAAUACCUCUCCUUGUGAGGGGCUGUGGUUGGCAACAGAGGAUUGAGCAUCA
B2: chr17:2569311:2569312:+_ENSG00000007168_ENST00000397195|hu_hu|motif|central (ssRNA)
RNA: GGGAGUUCUACAGUCCGACGAUCUGUCCAUUUUUUUUCCAAAAGACCAGCAUACUUUUUAUCUAAUUCUUCAUUCACAUCGGAUUCAGCUUCCUUUUUAAAAACUGAAUAUGCCUCUUCAUAGCCAUUUGAACGAAGAUAAUCCAACAGAGGAUUGAGCAUCA
B3: chr11:100882373:100882374:+_ENSMUSG00000019302_ENSMUST00000044721|mus_hu|FALSE|FALSE (ssRNA)
RNA: GGGAGUUCUACAGUCCGACGAUCUUCCUGGUUUGUGUUGAUUUCCUUCAGUUCAUUUUCAAUCUUCUCAAAAUUGGCCUCUAAGUCAAUCAUGUCCCGGGGGAAGGGAACCUCUGGGUUUUCACCGGUGUCCAUAAUCGGAAUCAACAGAGGAUUGAGCAUCA
B4: chr12:48528548:48528549:+_ENSG00000152556_ENST00000359794|hu_mus|FALSE|FALSE (ssRNA)
RNA: GGGAGUUCUACAGUCCGACGAUCGAGCCGGCGACAAAGGUGUUCUUCCCAGUCAUCGUCUGGCGGACACUCAGGAAUAAAAACCCAGUCGGCCCCACAGGACAGAGAGGUGACAAGGGCCAGGUAUCCACAGUGGCGGCCCAUCAACAGAGGAUUGAGCAUCA
B5: 70739411_70748023_2279_CDS_ENSMUSG00000020817_ENSMUST00000076270|mouse|control|control (ssRNA)
RNA: GGGAGUUCUACAGUCCGACGAUCUUGAAUUUGCUCUUUUAGGAAAAGUAUUUCCGCCUUCAGCUUCUCUUCCAUGUGGUCUGCUGCUGUGCGCACAUGAACAAUGUUCUCACGAUAUUUUAAAACCAGUUCCCGGAGCACCUCCAACAGAGGAUUGAGCAUCA
B6: chr7:7679991:7679992:-_ENSG00000106399_ENST00000396682|hu_hu|hu_hu_hu_mus_False|18_18 (ssRNA)
RNA: GGGAGUUCUACAGUCCGACGAUCUGGGAUGAAUCUUUUCCAGCUUCCCCACGAAGCACACGGGCCGGUCGAUAUACUGUGGUAACAUGCUGGCGUUGACGCGCGCUUUGGGGAGCUCCAUCAUGUCCUCCAUGAUUCUGCCGCCAACAGAGGAUUGAGCAUCA
B7: chrX:117107323:117107324:-_ENSG00000003096_ENST00000371878|hu_hu|motif|central (ssRNA)
RNA: GGGAGUUCUACAGUCCGACGAUCUUUGAGCUGCAACAAUACAAAUGGGAUAUAAACCUCAGCAUAGCCUUAGGCGGCCGCGGAUAGAGAUCAGUGACUAAAUUCAGCAGCCUGCUUUCCUCCUGUGCAAGCUCUGGCCACACACAACAGAGGAUUGAGCAUCA
B8: 25675406_25677447_891_CDS_ENSG00000077097_ENST00000264331|human|control|control (ssRNA)
RNA: GGGAGUUCUACAGUCCGACGAUCUCUUUCAUUUGCAAGCUCAUGAAUAACUUUCAGGGCCACCCCAGUUUCAUCCAAUUUGUCUUUCACAUAAAGAUCUACAUAACUGCGAAAUCCAUUUACAGGCAAUUUCUUUCCAUUAAACAACAGAGGAUUGAGCAUCA
B9: chr2:52995849:52995850:-_ENSMUSG00000061136_ENSMUST00000076313|mus_mus|FALSE|FALSE (ssRNA)
RNA: GGGAGUUCUACAGUCCGACGAUCAAGAGUCAGAAAUUUAGGACUGCCCCAUCACCUGUGCCUUCAUACUACGUCUAGCAACUACAAUGUGUCUGAUGGUAUAAUCAAAACAAGACAAUAGAGUAGACUGGAUUUACAUGUUUUCAACAGAGGAUUGAGCAUCA
B10: chr7:135840685:135840686:-_ENSMUSG00000048170_ENSMUST00000057557|mus_mus|motif|central (ssRNA)
RNA: GGGAGUUCUACAGUCCGACGAUCCAACUCCCUUGAUUUAUCAAGGCCGACCCUGUUUCCUUGGUUAGCAGGGAAGAAUCGGAGGGACCACUGAUUGAUCUUCACACACAGCAGAUGAGAUUAACAGCAAGGUUCUAACUUUUCCAACAGAGGAUUGAGCAUCA
B11: chr2:29016751:29016752:+_ENSG00000213639_ENST00000296122|perfect_dup|FALSE|FALSE (ssRNA)
RNA: GGGAGUUCUACAGUCCGACGAUCUUUAGCAAAAAAUUCAUAUCCGUCUUCCACCACCUGAUGAGCUCGACAAAUCAAGUCUAAAUCAUGACGAUUCAGAAAUUUACUGACUACAUCAGCUCCAAAAGUAAAAGAAACACCACGCAACAGAGGAUUGAGCAUCA
B12: chr13:59555571:59555572:-_ENSMUSG00000021557_ENSMUST00000164215|mus_mus|FALSE|FALSE (ssRNA)
RNA: GGGAGUUCUACAGUCCGACGAUCAAAAGAGAAAGGAAUUGCUAAUGUCUGAUUGGUGGCAAGAGGCAUGAAGCUGUAGCUAUUAAAUGGCCCUGAGCCAGUCCUCCCAGGAGAGUGCCGAUGGCCAGGUCACUGUCAUCGCGUCAACAGAGGAUUGAGCAUCA
B13: chrX:34421674:34421675:+_ENSMUSG00000016308_ENSMUST00000016452|mus_hu|FALSE|FALSE (ssRNA)
RNA: GGGAGUUCUACAGUCCGACGAUCGAACAUCUUAGAGACAAAUCUAACUGUAGGUGGUUUAUUUGGAUAUUCUUCAGUGAAUUCUAUUGUAAGUUUAAAUGUUCCAUCCUCAAACGGGGUCCCUUCAGGCCCGAAAAUGACCGCCAACAGAGGAUUGAGCAUCA
B14: chr13:100191535:100191536:-_ENSMUSG00000052727_ENSMUST00000064762|mus_mus|FALSE|FALSE (ssRNA)
RNA: GGGAGUUCUACAGUCCGACGAUCAGAGGGGAUAUUGCACACAAAUAUCAUAAAAGCACUACAUAUUACUUUCACUGGAAACUAAUUUUUCUACAUUAGAUAUGACUGGAUAGGAUGGAAGUGAUGCAGGAUUAUAAGACAUAACAACAGAGGAUUGAGCAUCA
B15: chr3:58389886:58389887:+_ENSMUSG00000075700_ENSMUST00000107924|mus_mus|FALSE|FALSE (ssRNA)
RNA: GGGAGUUCUACAGUCCGACGAUCUUUGCCAACAAUUAUUAAGCCUAUUAAUACUAGUUUGAAGACUGACAGGAAAGAUGCUAUGUGUCUAUAAAUUGGUUGAGGGAGAUAAUUCUCGCCUUCAAUGCGGAUGUCUGGAUACCGCAACAGAGGAUUGAGCAUCA
B16: chr17:64801638:64801639:+_ENSG00000154229_ENST00000413366|hu_mus|hu_hu_hu_mus_False|88_108 (ssRNA)
RNA: GGGAGUUCUACAGUCCGACGAUCUAUAAAUACAUAUACAUAUGUACACAUAUGUAGUAAAACCCUAGUUAAACGUGUAAAGUAGCCAUUCAUUUUUAAAAUUACAUCUACAUUAAAAAAUUAAUAUAUCUGAUAGAGUGCCAGCAACAGAGGAUUGAGCAUCA
B17: chr18:48422213:48422214:+_ENSG00000082212_ENST00000321341|hu_mus|FALSE|FALSE (ssRNA)
RNA: GGGAGUUCUACAGUCCGACGAUCGCUUGCCCUUCUCUUUCAGGUGCACUCGGCGGCAGGUCAAGGUACAAGGAGUGGUAACAGCUCUUAGCCGGGAAAACAUCUUCUCUCCCCGGACGCCUGGCCCGUGCCAGGUGGUGCAGCCAACAGAGGAUUGAGCAUCA
B18: chr8:42881778:42881779:+_ENSG00000168172_ENST00000307602|hu_mus|FALSE|FALSE (ssRNA)
RNA: GGGAGUUCUACAGUCCGACGAUCCAACAAGUAGGGACAGUCUCGAGGUUUUUAUUUUAGGAGACAGCACCUUAAAGGGUAAGAAAAAUCUCAUUCAACAGAAAAGUGUUUAGUGAGUAGAGCACUUGCCCUGGAGUGCACGAGCAACAGAGGAUUGAGCAUCA
B19: chr11:100452292:100452293:-_ENSMUSG00000014195_ENSMUST00000014339|perfect_dup|motif|central (ssRNA)
RNA: GGGAGUUCUACAGUCCGACGAUCAUUUGUUUUUAUGUUGUUGGGAUCUAUCCCCAAGGCUUCUGUGUACAGUUCAUAUGCGGGCUUGUAAUUUCCUUCCUUAAAGGCUUUAUUCCCAUCUUCCUUCUUGGCUUUAAGGGCUUUCAACAGAGGAUUGAGCAUCA
B20: chr14:102368134:102368135:+_ENSG00000078304_ENST00000445439|hu_hu|hu_hu_hu_mus_True|48_108 (ssRNA)
RNA: GGGAGUUCUACAGUCCGACGAUCAAGGGGUUCCAUGAUCUUCACAAACUCUGAUGGUUCAAUUACAUCUAAAAUUUCUUCUAAUUCGUUUAAGAACAUUACUUCUUUUGGACUGUGAGUCUUUGGCCAGUAUUUGAGAAGUGCCAACAGAGGAUUGAGCAUCA
B21: chr14:66974463:66974464:+_ENSMUSG00000022044_ENSMUST00000074523|mus_hu|mus_mus_mus_hu_False|18_18 (ssRNA)
RNA: GGGAGUUCUACAGUCCGACGAUCUUGUAGGACGACUUAUUCAGGGGAUCGGCCAGGAAGCAGGAGCAGAACAAGGACACCAGCGGGAGCUCCUUCAUCUUCUCUUUGUAGGCAGCAAGAGUCAUGUUUCUGGGAUCUGGUGGCCAACAGAGGAUUGAGCAUCA
B22: chr3:10015032:10015033:+_ENSMUSG00000027533_ENSMUST00000029046|mus_mus|motif|central (ssRNA)
RNA: GGGAGUUCUACAGUCCGACGAUCGUUGUUGCCAUCACACGUAAUGAUACAGUCUGGCUUGGCCAUGGCAGCCAUCUUCCGGAGAGCCAGUCCUACUCCUAGCUCUUUCAUGUACUCCUCAAAGCCGUGGCUUUCCAUCAGGCGCAACAGAGGAUUGAGCAUCA

These binders were tested against T1, UNK ZnF1-3 (human, UniProt Q9C0B0 31-174) (assay: nsRBNS (natural sequence RNA bind-n-seq); RBNS binding buffer (assumed for nsRBNS): 25 mM Tris pH 7.5, 150 mM KCl, 3 mM MgCl2, 0.01% Triton X-100, 500 ug/ml BSA, 20 U/ml SUPERase-In, 4 C; UNK is unkempt and MSI1 is Musashi-1; names of the RNAs are library labels; protein concentration not given here; high values mean tight binding).
T1 sequence: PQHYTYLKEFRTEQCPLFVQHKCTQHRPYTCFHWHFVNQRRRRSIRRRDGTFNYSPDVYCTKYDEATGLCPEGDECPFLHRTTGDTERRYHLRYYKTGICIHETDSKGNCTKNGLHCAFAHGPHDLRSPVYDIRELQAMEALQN

Binder | binding signal
B1 | 0.901 enrichment R
B2 | 0.715 enrichment R
B3 | 0.568 enrichment R
B4 | 0.781 enrichment R
B5 | 0.799 enrichment R
B6 | 0.785 enrichment R
B7 | 1.34 enrichment R
B8 | 0.94 enrichment R
B9 | 1.59 enrichment R
B10 | 0.914 enrichment R
B11 | 1.25 enrichment R
B12 | 1.13 enrichment R
B13 | 0.853 enrichment R
B14 | 1.08 enrichment R
B15 | 1.47 enrichment R
B16 | 1.67 enrichment R
B17 | 0.78 enrichment R
B18 | 1.27 enrichment R
B19 | 0.27 enrichment R
B20 | 0.823 enrichment R
B21 | 2.29 enrichment R
B22 | 0.573 enrichment R

Source: article PMC12136788
